Survival data for 90 compounds are collected here from PubChem BioAssay AID463173 (ICCB-Longwood Screening Facility, Harvard Medical School, 2010).

About 4,300 (8.3%) of roughly 52,000 compounds were called active. No stated cut-off is given here; in the data, active means survival mostly below about 52% (no sharp cut-off); inactive means mostly above about 56%. Some of the results follow.

For the experiment, the system named is DeltatarO mutant. Put plainly: S. aureus survival, RN4220 and DeltatarO strains – OD600, teichoic acid synthesis inhibitors, primary screen (AID 463173). The following applies: S. aureus RN4220 wild type/DeltatarO growth, OD600, 18 h, stronger effect = lower value, screened at 18.75 µg/mL (by protocol).
In the case of `CCc1cccc(NC(=O)Cc2nc(-c3ccc(OC)cc3)no2)c1`, the survival was inactive: 77%. For `COCCCNC(=O)c1nn(C)c2c1CS(=O)(=O)c1ccccc1-2` the value was inactive: 99%; for `COc1cc(C(=O)NC(c2ccccc2Cl)c2cc(Cl)c3cccnc3c2O)cc(OC)c1OC` (stereo not given), inactive: 85%.

As to `CC(C)NC(=O)C1CCN(S(C)(=O)=O)CC1`, the survival is inactive: 93%.

Take `COc1ccccc1C(=O)Nc1cccc(C(=O)OCc2cc(=O)n3c4c(sc3n2)CCCC4)c1`: the survival was inactive: 92%. For `CCOc1ccc(NC(=O)Cn2c(=O)n(CC3CCC(C(=O)NCCc4ccccc4)CC3)c(=O)c3ccccc32)cc1` (stereo not given) the value was inactive: 77%; for `COc1ccc(NC(=O)CSc2oc(-c3ccco3)nc2S(=O)(=O)c2ccc(C)cc2)c(OC)c1`, inactive: 67%; for `Cc1nc2ccccc2c(=O)n1/N=C1\C(=O)N(C)c2ccccc21`, inactive: 83%.

For `CN(C)S(=O)(=O)c1ccc2c(c1)N(CC(=O)Nc1cccc(C(F)(F)F)c1)C(=O)CS2`, the survival is inactive: 75%. The value for `Cc1c(CNC(C)CCc2ccccc2)c(C(=O)O)c(C)n1Cc1ccc(F)cc1` (stereo not given) was inactive: 72%. For `CCOC(=O)c1ccccc1NC(=O)NCc1c(-n2cccc2)sc2c1CCCC2` the value was inactive: 71%; for `CCOc1ccc(NC(=O)C(CC(C)C)N2Cc3ccccc3C2=O)cc1` (stereo not given), inactive: 130%. The value for `CC(C)(C)OC(=O)N1CCC(N2CCN(Cc3ccccc3)C(=O)C2=O)CC1` was inactive: 83%; that for `Cc1onc(-c2ccccc2Cl)c1C(=O)Oc1ccccc1F` was inactive: 76%; that for `COc1cccc(N2CCN(C(=O)CCSCc3ccccc3F)CC2)c1` was inactive: 101%. For the compound `CCn1ccc2c(OCC(=O)Nc3ccc(C)c(Cl)c3)cccc2c1=O`, the survival is inactive: 60%. The value for `CCOC(=O)C1CCN(S(=O)(=O)c2cc3c4c(c2)C(C)C(=O)N4CCC3)CC1` (stereo not given) was inactive: 98%; that for `Cc1cccc(C(=O)Nc2c(C(=O)N3CCN(c4ccc(F)cc4)CC3)oc3ccccc23)c1` was inactive: 89%; that for `CC1Cc2cc(C(=O)NC3CCCCC3)ccc2O1` (stereo not given) was inactive: 71%. As to `O=C(Cc1ccc(Cl)cc1)NCC(c1cccs1)S(=O)(=O)c1ccccc1` (stereo not given), the survival is inactive: 55%.

As for `CCCSc1ncc(Cl)c(C(=O)Nc2sc(C(C)=O)c(C)c2C(=O)OCC)n1`, the survival is inactive: 51%. The value for `Cc1ccc(S(=O)(=O)N(CC(=O)Nc2ccc(F)cc2F)Cc2ccc(F)cc2)cc1` was inactive: 62%; that for `O=C(CCn1c(=O)c2cccn2c2cccnc21)N1CCN(c2ccc(F)cc2)CC1` was inactive: 88%; that for `COc1ccccc1CCNC(=O)Cn1ccc2cc(S(=O)(=O)N3CCCCC3)ccc21` was inactive: 66%. In the case of `CCCC(=O)Nc1nnc(SCc2cc(=O)n3ccccc3n2)s1`, the survival was inactive: 87%.

Regarding `COc1ccc(C(=O)Nc2ccc3nc(SCC(=O)N4CCCC4)sc3c2)cc1`, the survival was inactive: 79%.

With `O=C(NC1CCCCC1)c1ccc2c(c1)N(Cc1ccccc1F)C(=O)c1ccccc1S2`, the survival is inactive: 79%. The value for `Cn1c(=O)c(=O)n(C)c2cc(S(=O)(=O)N3CCCC3C(=O)Nc3cccc(F)c3)ccc21` (stereo not given) was inactive: 100%. On to `CCOc1ccc2nc(NCCNC(=O)C(C)(C)C)c(C)cc2c1`, for which the survival was inactive: 77%. For `CCOc1ccccc1NC(=O)c1ccc2c(c1)CCN2S(C)(=O)=O` the value was inactive: 75%. In the case of `Cc1cc(N2CCN(C3=NCC(C)(C)S3)CC2)n2c(nc3ccccc32)c1C#N`, the survival is inactive: 74%. As for `CCn1cc2nc(SCC(=O)Nc3cc(OC)ccc3OC)n(Cc3ccc(Cl)cc3)c(=O)c2n1`, the survival was inactive: 61%. The value for `Cc1ccc(-n2c(SCC(=O)N3CCc4ccccc43)nc3c([nH]c4ccccc43)c2=O)cc1` was inactive: 109%; that for `CCOC(=O)c1c(CN(C)C)oc2ccc(O)cc12` was inactive: 88%; that for `O=C(Nc1ccc(OC(F)(F)F)cc1)c1cc2c(=O)n3ccccc3nc2s1` was inactive: 87%. The value for `O=C(O)/C=C/c1ccc(-c2ccccc2)o1` was inactive: 92%; that for `CCS(=O)(=O)N1CCc2cc(C(=O)Nc3cc([N+](=O)[O-])ccc3C)ccc21` was active: 40%; that for `CCOc1ccc(CNC(=O)CCC(=O)N2Cc3ccccc3Oc3ncccc32)cc1` was active: 32%. The value for `Cc1ccc(Cn2c(CN3CCC(C(=O)NCc4cccnc4)CC3)cc3ccccc32)cc1` was inactive: 101%; that for `O=C(CSc1nc2ccccc2o1)N=Nc1c(O)[nH]c2ccccc12` was inactive: 71%. Take `Cc1cc(-c2ccccc2)nc2cc(C(=O)N3CCCCCC3)nn12`: the survival was inactive: 90%.

On to `Cc1ccc(CNC(=O)C2CCN(Cc3nc(-c4ccccc4C)oc3C)CC2)cc1`, for which the survival was inactive: 87%. Take `CCN(CCN(C)C)C(=O)Cn1ncc2c([nH]c3ccc(C)cc32)c1=O`: the survival is inactive: 88%.

In the case of `Cc1ccn2c(Nc3ccccc3C)c(-c3ccncc3)nc2c1`, the survival is inactive: 85%.

For the compound `Cc1cccc(NC(=O)CSc2nnc(CNC(=O)c3cccc(C)c3)n2-c2ccccc2)c1`, the survival was inactive: 59%. For `CCCCn1c(CN2CCN(c3ccc(OC)cc3)CC2)nc2c1c(=O)[nH]c(=O)n2C` the value was inactive: 75%. The value for `COc1ccc(-c2noc(CN(C(=O)c3ccccc3Cl)C(C)C)n2)cc1` was inactive: 62%; that for `Cc1ccccc1Cn1c(-c2cccs2)nc2ccccc21` was active: 19%. For `CCOC(=O)N1CCN(Cc2nc3cc(NC(=O)c4ccc(F)cc4)ccc3n2C(C)C)CC1` the value was inactive: 58%; for `Cc1ccc(CCNC(=O)c2cnc3c(C)cccn3c2=O)cc1`, inactive: 81%; for `Cc1c(Cl)cccc1NC(=O)Nc1nnc(N(C)C2CCCCC2)s1`, inactive: 97%.

For the compound `Cc1ccc(C(=O)c2cn(Cc3cc(C)ccc3C)c3nc(C)ccc3c2=O)cc1`, the survival is inactive: 83%. For `CCCCCCNC(=O)CCc1c(C)nc2nc(-c3cc(OC)cc(OC)c3)nn2c1C` the value was inactive: 57%; for `CCOCCCNC(=O)C(NC(=O)C1CCC(C)CC1)C(C)C` (stereo not given), inactive: 81%; for `CCN(CC)Cc1ccc(C(=O)O)o1`, inactive: 97%. The value for `CN(C1CCCCC1)S(=O)(=O)c1ccc2c(c1)c(=O)c(C(=O)N1CCN(c3ccc(F)cc3)CC1)cn2C` was inactive: 81%; that for `NC(=O)CSc1nc2cc3c(cc2c(=O)n1CCCCCC(=O)NCc1ccc2c(c1)OCO2)OCO3` was inactive: 81%. Take `O=C1CCCC(O)=C1C=Nc1ccc2c(c1)oc1ccccc12`: the survival is inactive: 64%.

For the compound `CC(=O)c1cccc(NC(=O)CCS(=O)(=O)c2ccc3c(c2)n(C)c(=O)c(=O)n3C)c1`, the survival was inactive: 84%. `O=C(Nc1ccccc1C(F)(F)F)C1(S(=O)(=O)c2ccc(Cl)cc2)CC1`: the survival was active: 84%. For `CN1CC(=O)N(CC(=O)Nc2cccc(C#N)c2)c2ccccc2C1=O` the value was inactive: 89%; for `COc1ccc(OC)c(NC(=O)C2CCCN(S(=O)(=O)c3ccc4[nH]c(=O)ccc4c3)C2)c1` (stereo not given), inactive: 83%. With `COc1ccc(C)cc1NC(=O)C1CCC(CNS(=O)(=O)c2ccc3c(c2)CCCC(=O)N3)CC1` (stereo not given), the survival is inactive: 67%. With `Cc1ccc(-n2cnc3cc(C(=O)NC4CCCCCC4)ccc32)c(C)c1`, the survival was inactive: 92%.

On to `Cc1ccc(NC(=O)CS(=O)CC(=O)NC2CCN(Cc3ccccc3)CC2)c(C)c1` (stereo not given), for which the survival was inactive: 87%. The value for `CC(C)c1ccc(-c2noc(C3CCCN(S(C)(=O)=O)C3)n2)cc1` (stereo not given) was inactive: 103%; that for `COc1ccc(NC(=O)CC2SC(=Nc3ccccc3)N(CCO)C2=O)cc1` (stereo not given) was inactive: 95%. For `O=C(Nc1ccc(F)cc1)c1ccc(CN2CC(=O)N3CCCCC3C2=O)cc1` (stereo not given) the value was active: -4%. The value for `O=C(N/N=C1\SCC(=O)N1CCc1ccccc1)c1cccs1` was inactive: 88%; that for `CC(C)c1cc(C(=O)NCc2ccc(F)cc2)no1` was inactive: 54%. For the compound `CCS(=O)(=O)n1nc(-c2ccco2)nc1NCc1ccc(C(C)C)cc1`, the survival was inactive: 77%.

With `Cc1ccc(-c2nnn(CC(=O)N(c3ccccc3)C(C(=O)NCc3ccccc3)c3ccncc3)n2)o1` (stereo not given), the survival is inactive: 93%. Take `CCc1ccccc1NC(=O)c1nn(-c2ccc(C)cc2)c(=O)c2c1c1ccccc1n2C`: the survival is inactive: 140%.

As for `Cc1cc(C)nc(SC2=CS(=O)(=O)c3ccccc32)n1`, the survival was inactive: 88%. `O=C(Nc1nccs1)c1ccc(S(=O)(=O)NCC2CCCCC2)cc1`: the survival was inactive: 52%. The value for `Nc1cc(N)nc(SCC(=O)N2CCc3ccccc32)n1` was inactive: 62%; that for `CCCOc1ccc(-c2nonc2NC(=O)c2ccco2)cc1OCCC` was inactive: 111%. For `CC1CCN(C(=O)c2cc3c(=O)n(C)c4cc(Cl)ccc4c3s2)CC1` the value was inactive: 125%; for `Cc1nc(-c2ccc(S(=O)(=O)N3CCN(c4cccc(C(F)(F)F)c4)CC3)cc2)co1`, inactive: 67%; for `CCOc1cc(/C=C2\SC(=NC)N(C)C2=O)c(Br)cc1OC(C)=O`, inactive: 55%.

With `Cc1cc(Br)cc(C)c1NC(=O)c1sc2ncn(Cc3cccc(F)c3)c(=O)c2c1C`, the survival is inactive: 91%. For `Cc1ccc(S(=O)(=O)c2nnn3c2nc(NC2CCCCCC2)c2sccc23)cc1C` the value was active: -4%; for `CCCOc1cccc(C2c3c(oc4ccc(F)cc4c3=O)C(=O)N2CCCN2CCOCC2)c1` (stereo not given), inactive: 80%. For `Cc1ccc(CN(Cc2ccco2)C(=O)c2ccccc2Br)o1` the value was inactive: 47%; for `COc1ccc(-c2cn3c(n2)sc2cc(C(=O)NCCC4=CCCCC4)ccc23)cc1`, inactive: 58%.

Take `O=c1c2cnn(-c3ccc(F)cc3)c2ncn1Cc1ccccc1Cl`: the survival is inactive: 100%.

As to `Cc1cc(C)n(CCc2nc3c4ccccc4nc(SCc4ccc(F)cc4)n3n2)n1`, the survival is inactive: 78%. In the case of `Cc1ccc(CNC(=O)c2c[nH]c3ccc(S(=O)(=O)N4CCOCC4)cc3c2=O)cc1`, the survival is inactive: 89%. For `CCOc1ccc(-c2nnn(CCC#N)n2)cc1OC` the value was inactive: 96%; for `CCNC(=O)c1ccc(C)c(-n2c(C)nc3cccnc32)c1`, inactive: 89%.
